From article PMC4336329 (PLoS ONE, 2015) come the findings set out here.

About 2,200 (0.71%) of roughly 310,000 compounds showed an effect of 50% or more. The effect is printed as a negative number. Some of the results follow.

human ether-à-go-go-related gene (hERG) potassium channel, sequence (Q12809 whole entry, looked up): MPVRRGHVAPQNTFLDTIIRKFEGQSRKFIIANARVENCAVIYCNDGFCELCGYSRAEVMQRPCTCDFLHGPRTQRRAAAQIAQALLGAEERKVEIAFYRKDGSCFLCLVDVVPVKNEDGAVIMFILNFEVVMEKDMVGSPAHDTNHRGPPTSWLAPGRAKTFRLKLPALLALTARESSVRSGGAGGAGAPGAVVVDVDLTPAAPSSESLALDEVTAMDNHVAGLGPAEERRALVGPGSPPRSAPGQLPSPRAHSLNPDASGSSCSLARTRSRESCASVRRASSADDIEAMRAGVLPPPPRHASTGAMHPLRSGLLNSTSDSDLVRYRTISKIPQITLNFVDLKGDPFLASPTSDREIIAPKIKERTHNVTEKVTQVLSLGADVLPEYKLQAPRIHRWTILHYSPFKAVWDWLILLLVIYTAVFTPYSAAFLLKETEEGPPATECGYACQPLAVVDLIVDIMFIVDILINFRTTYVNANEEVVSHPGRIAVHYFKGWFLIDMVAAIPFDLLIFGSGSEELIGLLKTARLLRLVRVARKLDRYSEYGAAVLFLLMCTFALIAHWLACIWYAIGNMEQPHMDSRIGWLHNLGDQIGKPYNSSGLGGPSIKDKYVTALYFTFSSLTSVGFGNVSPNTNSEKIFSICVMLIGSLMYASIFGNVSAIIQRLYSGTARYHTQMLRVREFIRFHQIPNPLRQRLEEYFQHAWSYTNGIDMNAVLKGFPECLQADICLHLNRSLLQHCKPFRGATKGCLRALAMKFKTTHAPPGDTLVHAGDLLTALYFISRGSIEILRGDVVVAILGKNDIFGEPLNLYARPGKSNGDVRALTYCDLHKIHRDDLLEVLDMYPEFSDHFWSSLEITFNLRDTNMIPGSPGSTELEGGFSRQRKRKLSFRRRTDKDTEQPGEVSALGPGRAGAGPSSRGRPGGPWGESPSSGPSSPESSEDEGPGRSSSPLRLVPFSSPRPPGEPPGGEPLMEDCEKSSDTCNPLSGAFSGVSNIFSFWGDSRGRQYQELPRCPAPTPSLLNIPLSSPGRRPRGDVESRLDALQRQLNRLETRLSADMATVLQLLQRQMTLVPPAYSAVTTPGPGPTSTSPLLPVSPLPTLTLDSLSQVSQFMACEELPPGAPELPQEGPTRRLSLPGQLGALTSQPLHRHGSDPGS

The assay concerns the target human ether-à-go-go-related gene (hERG) potassium channel (human, UniProt Q12809). As to the kind of experiment: primary screen, population patch clamp on CHO cells stably expressing hERG.
With `O=C(N1CCOCC1)C12CC3CC(C1)CC(c1ccccc1)(C3)C2`, the “hERG current change (%, negative = inhibition) at 1uM” value is given as -2.54%. For the molecule `COc1ccc(CCNC(=O)C2CCN(C(=O)c3ccc(Cl)cc3)CC2)cc1`, the “hERG current change (%, negative = inhibition) at 1uM” value is 7.56%. The value for `C/C(=N\NC(=O)c1csc(C)c1C)c1ccc(Cl)s1` was 5.25%; that for `Cc1ccc(S(=O)(=O)NCC2CCC(C(=O)N3CCN(C)CC3)CC2)cc1` (stereo not drawn) was 22.1%. The value for `Cc1c(NC(=O)CC(C)C)c(=O)n(-c2ccccc2)n1C` was 10.9%.

With `Cc1ccc(S(=O)(=O)CCC(=O)Nc2ccccc2Br)cc1`, the “hERG current change (%, negative = inhibition) at 1uM” value was found to be 17.8%. As for `O=C(O)CSc1nnc(-c2cccc(S(=O)(=O)N3CCCCC3)c2)o1`, the figure is 17.7%; as for `O=C(Cc1ccc(Cl)cc1)Nc1ccccc1C(=O)N1CCCC1`, -3.6%; as for `Cc1ccc(C)c(C(=O)OCC(=O)Nc2cccc(S(=O)(=O)NC3=NCCCCC3)c2)c1`, 8.75%. The value for `O=C(CSc1nnc(CNC(=O)c2ccccc2)o1)Nc1nccs1` was 16.2%; that for `O=C(CCC(=O)NC12CC3CC(CC(C3)C1)C2)NC1CCCCC1` was 16.9%.

For `CCC(C)NC(=O)CN(C)S(=O)(=O)c1ccc2c(c1)c(=O)n(C)c(=O)n2C` (stereo not drawn), the “hERG current change (%, negative = inhibition) at 1uM” value came to 0.896%.

Consider `Cc1c(Cl)cccc1Nc1nc(N)nc(CN2CCCCCC2)n1`, for which the “hERG current change (%, negative = inhibition) at 1uM” value is -38%. As for `CCOCCCn1c(=N)c(S(=O)(=O)c2ccc(C)cc2)cc2c(=O)n3cc(C)ccc3nc21`, the figure is 16.1%; as for `Cl.O=C1CSC(c2cccc([N+](=O)[O-])c2)N1CCN1CCCCC1` (stereo not drawn), 6.07%; as for `CCOC(=O)Nc1nc(-c2ccccc2)c(C(=O)c2ccc(Cl)cc2)s1`, 7.82%. The value for `CC(NC(=O)Nc1ccc(Cl)cc1)C1CCCO1` (stereo not drawn) was 1.28%; that for `COc1ccc(S(=O)(=O)N2CCN(C3CCN(Cc4ccccc4)CC3)CC2)cc1` was -15.6%; that for `CCOC(=O)C(=CNc1ccccc1N1CCOCC1)C(=O)OCC` was 10.2%.

As to `Cc1ccc(S(=O)(=O)c2cc3c(=O)n4ccccc4nc3n(C3CCCC3)c2=N)cc1`, the “hERG current change (%, negative = inhibition) at 1uM” value is on record as 3.8%. As for `CCc1ccc(NC(=O)/C(C#N)=C/c2cc3ccc(C)cc3nc2N2CCOCC2)cc1`, the figure is 8.07%; as for `CCn1c(CC(=O)Nc2ccccc2)nnc1SCC(=O)N1CCOCC1`, 13.6%; as for `Cc1cc(C)c(C)c(S(=O)(=O)N(C)C2CCN(C)CC2)c1C.Cl`, 10.3%. The value for `CCN(CC)S(=O)(=O)c1ccc2oc(C(=O)NC3CCCc4ccccc43)c(C)c2c1` (stereo not drawn) was 10.8%. Take `CCOc1ccc(NC(=O)COc2coc(CN3CCc4ccccc4C3)cc2=O)cc1`: the “hERG current change (%, negative = inhibition) at 1uM” value was determined as 12.3%. As for `O=C(NCCSC1CCCCC1)c1ccccc1`, the figure is 5.1%; as for `COc1ccc(C(=O)N2CCOC2CNC(=O)C(=O)NCc2ccc3c(c2)OCO3)cc1` (stereo not drawn), 4.09%.

`CCN(CC)S(=O)(=O)c1ccc2c(c1)nc(CCC(=O)OCC(=O)N1CCc3ccccc31)n2C`: the “hERG current change (%, negative = inhibition) at 1uM” value was -5.56%. `CCOC(=O)C(NC(=O)CC(C)C)(Nc1sc2c(c1C(N)=O)CCCC2)C(F)(F)F` (stereo not drawn): the “hERG current change (%, negative = inhibition) at 1uM” value was found to be 18.4%. The value for `CC1(C)CC(=O)C(=Cc2cn(-c3ccccc3)nc2-c2ccc(Cl)cc2)C(=O)C1` was 14.9%; that for `N#CC1=C(SCC(=O)NCc2ccccc2)NC(=O)CC1c1ccco1` (stereo not drawn) was 15%; that for `C[C@H](NC(=O)Nc1ccc2c(c1)OCCO2)C(=O)O` was 20.4%.

Consider `COCCCNC(=S)N(CCO)Cc1cc2cc3c(cc2[nH]c1=O)OCCO3`, for which the “hERG current change (%, negative = inhibition) at 1uM” value was 14.1%.

With `COc1cc(C2NC(=O)NC(c3ccccc3)=C2C(C)=O)ccc1OCC(=O)O` (stereo not drawn), the “hERG current change (%, negative = inhibition) at 1uM” value amounted to 8.84%. For `CCOC(=O)/C(N=Nc1cc(C(=O)O)cc(C(=O)O)c1)=C(\O)CCl`, the “hERG current change (%, negative = inhibition) at 1uM” value is on record as 3.38%. As to `NS(=O)(=O)c1ccc(CCNC(=S)NC2CCCC2)cc1`, the “hERG current change (%, negative = inhibition) at 1uM” value is recorded as 6.65%. For `COc1cccc(/C=N/NC(=O)c2cccc3ccccc23)c1OC`, the “hERG current change (%, negative = inhibition) at 1uM” value is recorded as 14.3%. The value for `COc1cc(Cn2c(-c3nonc3N)nc3ccccc32)ccc1C` was 1.87%; that for `O=C(NCc1nc(-c2ccc(C(F)(F)F)cc2)no1)Nc1cc(Cl)cc(Cl)c1` was 11.7%.

Turning to `CCOC(=O)c1c(C)c(-c2ccccc2)n(CC(=O)NCCC(C)C)c1C`, the “hERG current change (%, negative = inhibition) at 1uM” value is given as 10.5%. The value for `Nn1c(SCC(=O)Nc2ccc(OC(F)F)cc2)nnc(Cc2ccccc2)c1=O` was -15.8%; that for `COc1ccc(C(=O)N2CCN(C3CCCCC3)CC2)cc1OC.O=C(O)C(=O)O` was -74.2%.

For `Cc1ccc(C(=O)NC(C(=O)NC2CCCC2)c2ccccc2)cc1` (stereo not drawn), the “hERG current change (%, negative = inhibition) at 1uM” value was 14.7%. As for `Cc1cc(C)c(NC(=O)C2CCCCN2C)c(C)c1.Cl` (stereo not drawn), the figure is 5.4%; as for `O=C(NN1C(=O)c2ccccc2NC1c1cccnc1)c1ccc([N+](=O)[O-])cc1` (stereo not drawn), -4.83%; as for `CCC(C)c1ccc(NC(=S)N2CCN(C(=O)C3CCCO3)CC2)cc1` (stereo not drawn), -12.1%. As to `CCCC(c1nnnn1C(C)(C)C)N1CCN(Cc2ccccc2OC)CC1.Cl` (stereo not drawn), the “hERG current change (%, negative = inhibition) at 1uM” value was found to be 5.97%. As for `COc1ccc(CCNC(=O)C(C)OC(=O)c2cccs2)cc1OC` (stereo not drawn), the figure is -3.5%; as for `O=C(Cc1c(Cl)cccc1Cl)OCC(=O)N1CCN(C(=O)c2ccco2)CC1`, 4.74%; as for `Cc1cc(C(=O)NCc2ccccc2)no1`, 10.3%. As for `O=C(CCCC(=O)N1CCCc2ccccc21)N1CCCc2ccccc21`, the figure is -4.61%; as for `Cc1sc(NC(=O)C2CSC3(C)CCC(=O)N23)nc1-c1ccc(F)cc1` (stereo not drawn), 0.383%.

In the case of `Cc1nc(SCC(=O)N2CCCCC2)c2c(C)c(C)sc2n1`, the “hERG current change (%, negative = inhibition) at 1uM” value amounted to 7%. As for `CC(=O)c1cccc(NC(=O)C2CCN(S(=O)(=O)c3cccs3)CC2)c1`, the figure is 13.2%; as for `COc1ccccc1C(=O)NC(CCSC)C(=O)NCc1ccncc1` (stereo not drawn), 9.86%; as for `COc1ccc(CN2CCN(C(=O)CCC(=O)Nc3nnc(C(F)(F)F)s3)CC2)cc1F`, 23.8%. Regarding `CN(CC(=O)Nc1ccc(F)cc1)C(=O)CSc1nncs1`, the “hERG current change (%, negative = inhibition) at 1uM” value turned out to be 15.7%. As for `CCCCN(CC)C(=O)CSc1nc2n[nH]c(C)c2c(=N)n1-c1cccc(C)c1`, the figure is 14.5%; as for `CCCN1/C(=C2/SC(=S)N(CC)C2=O)C=Cc2ccccc21`, 8.01%. In the case of `CN1CCN(C(=O)CCCOc2cc(=O)n(C)c3ccccc23)CC1`, the “hERG current change (%, negative = inhibition) at 1uM” value is -0.0929%. As for `Cc1ccc(C23OC(=O)C(C)(C)C2OC(=O)C3(C)C)cc1` (stereo not drawn), the figure is 4.77%; as for `Cc1ccc(N(CC(=O)NCC2CCCO2)S(=O)(=O)c2ccccc2)c(C)c1` (stereo not drawn), 3.21%; as for `Cc1cc(C)n(CC(O)Cn2ccc3ccccc32)n1` (stereo not drawn), -3.79%. As for `C[C@@H](NC(=O)[C@@H]1Cc2ccccc2CN1)C(=O)NCc1ccco1`, the figure is 13.3%; as for `CC(C)CC(=O)Nc1cccc(-c2csc(-c3ccccc3)n2)c1`, 11.9%; as for `COc1ccc(NC(=O)CSc2n[nH]c(-c3ccncc3)n2)c([N+](=O)[O-])c1`, 15.6%. The value for `COc1cc(C)c(CNC2CCCCC2)cc1C` was 2.45%; that for `CCSc1nc(CC)c2c(c1C#N)CCCC2` was 5.08%; that for `Cc1cccn2c(=O)c3cc(C(=O)N4CCCC(C)C4)sc3nc12` (stereo not drawn) was 11.6%. On to `NS(=O)(=O)c1ccc(NC(=O)COC(=O)CCc2nc3ccccc3c(=O)[nH]2)cc1`, for which the “hERG current change (%, negative = inhibition) at 1uM” value was 19.1%.

For `Cc1ccc(N2CC(C(=O)Nc3nnc(SCC(N)=O)s3)CC2=O)cc1C` (stereo not drawn), the “hERG current change (%, negative = inhibition) at 1uM” value turned out to be 14%. As for `O=C(/C=C/c1ccco1)NC(=S)Nc1ccc(Cl)cn1`, the figure is 8.56%; as for `CCOC(=O)C1CCCN(C2=C(NS(=O)(=O)c3ccc(Br)cc3)C(=O)c3ccccc3C2=O)C1` (stereo not drawn), 7.43%. As for `CN(C(=O)CCN1C(=O)S/C(=C\c2ccccc2)C1=O)C1CCS(=O)(=O)C1` (stereo not drawn), the figure is 4.62%.

`CCC/C(=N\NC(=O)C1CC1)c1ccc(Br)cc1`: the “hERG current change (%, negative = inhibition) at 1uM” value came out at 10.7%. `C1CCC(C23CC4CC(CC(C4)C2)C3)NC1` (stereo not drawn): the “hERG current change (%, negative = inhibition) at 1uM” value was 13.6%. As for `CCN(CC)C(CNC(=O)CSc1nnnn1-c1ccc(C)c(C)c1)c1ccco1` (stereo not drawn), the figure is -0.627%; as for `CCOC(=O)CC1C(=O)NCCN1C(=O)c1c(Cl)cccc1Cl` (stereo not drawn), 14.3%. As for `CC(=O)NCc1ccc(S(=O)(=O)NC(C)CCc2ccccc2)cc1` (stereo not drawn), the figure is 12.1%. On to `CC(C)(C)C1=NN(C(=O)c2ccccc2)C(O)(C(C)(C)C)C1` (stereo not drawn), for which the “hERG current change (%, negative = inhibition) at 1uM” value is on record as -11.8%. As for `O=C(CCCC(=O)N(CC(=O)NC1CCCCC1)c1ccc(F)cc1)Nc1ccccn1`, the figure is 12.3%; as for `O=C1[C@H]2[C@@H](c3ccc(F)cc3)N3C(=O)N(c4ccccc4)C(=O)[C@@]3(Cc3ccc(Cl)cc3)[C@H]2C(=O)N1C1CCCCC1`, 8.73%; as for `COc1ccc(NCc2nnc(SCc3ccc(Cl)cc3)n2-c2ccccc2)cc1`, 13.9%. As for `CC(Oc1ccccc1Cl)C(=O)N(Cc1ccco1)C1CCS(=O)(=O)C1` (stereo not drawn), the figure is 11.1%; as for `C=C(C)C(=O)Nc1cccc(C2=NOC3(C2)C[C@@H](C(N)=O)N(C(=O)/C=C/CC)C3)c1` (stereo partly drawn), 5.17%. The value for `CC(=O)NC1C(=O)N=C(SCC(=O)Nc2sc3c(c2C#N)CCCCCC3)NC1=O` (stereo not drawn) was 10.7%; that for `Cc1cc(C(=O)Nc2c(C)nn(Cc3ccccc3Cl)c2C)no1` was -1.9%.
